The list shows a part of the results. Sequences were assembled here from the parent chain. Inactive controls read about 0.05.
B1: TEV protease; numbered along this chain (parent)
chain: MGESLFKGPRDYNPISSSICHLTNESDGHTTSLYGIGFGPFIITNKHLFRRNNGTLVVQSLHGVFKVKDTTTLQQHLVDGRDMIIIRMPKDFPPFPQKLKFREPQREERICLVTTNFQTKSMSSMVSDTSCTFPSGDGIFWKHWIQTKDGQCGSPLVSTRDGFIVGIHSASNFTNTNNYFTSVPKNFMELLTNQEAQQWVSGWRLNADSVLWGGHKVFMVKPEEPFQPVKEATQL

Variants of: B1
Assay: raw area under fraction-flipped curve 0-4 h after induction (AUC4h, not background-subtracted), DNA-recorder readout of cleavage of the substrate (dimensionless); higher = more cleavage of the substrate by the protease variant
Conditions: temperature: 34 °C; time window: 0-4 h after rhamnose induction
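Note: Bxb1 expression induced with 0.2% (w/v) L-rhamnose at OD600 near 0.5, cultures sampled hourly, flipped fraction per protease–substrate barcode pair counted by paired-end Illumina sequencing.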

Variant	area with substrate ENLYFES	area with substrate ENLYFIS	area with substrate ENLYFKS	area with substrate ENLYFLS	area with substrate ENLYFMS	area with substrate ENLYFPS	area with substrate ENLYFRS	area with substrate ENLYFSS	area with substrate ENLYFTS	area with substrate ENLYFWS	area with substrate ENLYFDS	area with substrate ENLYFFS	area with substrate ENLYFHS	area with substrate ENLYFNS	area with substrate ENLYFVS	area with substrate ENLYFYS	area with substrate ENLYFGS	area with substrate ENLYFCS
H76D	0.0611	0.053	0.0635	0.0488	0.06	0.0506	0.0435	0.0516	0.0609	0.0583	–	–	–	–	–	–	–	–
T129L	0.0606	0.0505	0.0631	–	0.0695	0.0605	0.0625	0.0599	0.0598	0.0582	0.0554	0.0707	0.0387	0.0782	0.0576	0.0625	–	–
F173E	–	0.0489	–	–	0.0569	0.0472	–	0.0662	0.0555	–	0.0646	–	0.0536	0.0604	–	–	–	–
F41Q	0.0451	0.0399	0.0607	–	0.0562	0.0505	0.0392	0.054	0.0945	0.0451	–	0.063	–	0.0517	–	0.0427	0.0574	–
E195A	–	0.0607	0.0664	0.061	0.0545	0.0726	–	–	0.0616	0.0628	–	0.0696	0.0566	0.057	–	0.0539	0.0582	0.0455
D79T	–	0.0534	0.0568	0.0457	–	0.0121	–	0.0707	0.052	–	–	–	0.0667	–	–	0.0438	–	–
D79W	0.0693	0.0552	0.054	0.0658	0.0563	0.0468	–	0.0633	0.0673	0.06	0.0685	0.0707	0.0464	–	0.0605	–	0.0616	–
M219T	0.0369	0.0514	–	–	0.0589	0.0679	0.0473	0.072	–	0.0728	0.0429	0.0659	0.0566	0.0399	0.062	0.0586	0.0853	–
K100Y	0.0538	0.0503	0.0627	0.0779	0.0951	0.066	0.0585	–	0.0507	0.0444	0.0825	0.0593	0.0538	–	0.0706	–	0.0628	–
H62I	0.062	0.0523	0.0633	0.0549	0.0478	–	0.0526	0.0547	–	–	–	0.0735	–	–	0.0735	–	0.0439	–
P94T	0.0415	0.0479	–	–	0.0694	0.0536	–	0.0694	0.0581	–	0.0653	0.0719	0.0797	0.0723	–	–	0.0547	–
P94A	0.0657	0.0563	–	–	–	–	–	0.0615	0.0605	–	–	0.0574	–	–	–	0.0643	–	–
L99Y	0.0599	0.0494	–	–	0.0671	–	0.0473	0.0598	0.0508	0.0559	–	0.0703	0.0641	0.0675	–	0.0548	–	–
T174S	0.0637	0.0563	–	–	0.05	0.0524	–	–	–	–	–	–	–	–	–	0.0466	–	–
T174K	0.102	0.0593	0.0615	–	0.07	–	–	–	0.058	–	–	–	–	–	0.0285	0.051	–	–
N178A	0.0652	–	–	0.0671	0.0696	–	–	0.067	–	–	–	–	–	–	–	0.0471	–	–
Q59K	–	0.0527	–	0.0472	–	0.0696	0.055	–	0.0705	0.0572	–	0.0486	–	0.0655	0.0412	–	–	–
D137V	–	0.046	–	–	0.0643	0.0574	–	0.115	–	0.0554	0.0569	0.0604	–	0.0884	0.0504	–	–	–
L156R	0.0473	0.0441	–	0.051	0.0508	0.0738	–	–	0.0495	0.037	0.0603	–	0.0367	0.056	0.0518	0.0745	0.0495	–
G162D	–	0.0634	0.0543	–	0.0684	0.0578	0.0517	0.0556	0.0635	0.0513	0.0514	0.0742	0.0505	0.0546	–	0.0269	0.0562	–
G162F	0.0188	0.0602	0.0847	0.0504	0.0641	0.063	0.0515	–	0.06	–	0.0513	0.0643	0.0336	0.0614	0.0568	0.0543	–	–
Q227W	0.0671	0.0483	0.0705	–	0.0694	0.0268	0.0613	–	–	–	0.0432	0.0358	0.05	0.0578	–	0.0578	–	0.0598
R204G	0.0659	0.0525	–	0.0501	–	0.0606	0.074	0.0566	0.0462	0.0675	–	0.0671	–	0.0651	0.062	–	–	–
R106E	0.0636	0.0764	0.065	–	0.0777	0.0626	0.0574	–	0.0688	–	–	0.0729	0.0433	–	0.0541	0.0638	–	–
S201G	0.0616	0.0578	–	0.0581	0.0455	0.0598	–	0.0659	0.0572	0.115	0.0526	0.0652	0.0398	0.0568	–	0.056	0.0673	0.0624
N53Q	0.0656	0.0593	0.0571	0.0547	0.0539	0.0621	0.0604	0.0566	0.0546	0.074	0.0689	0.0773	0.0676	–	0.0517	–	–	–
T114R	0.0691	0.053	0.0791	–	–	0.0582	0.0712	0.0635	0.0581	–	–	0.0574	0.0634	0.0572	0.0571	0.0601	0.0657	–
H143G	0.0521	0.0471	–	–	0.0613	0.0567	–	–	0.0561	0.0546	0.0505	–	0.0601	0.0562	–	0.0502	–	–
F140W	0.0591	0.0568	–	–	–	–	–	–	–	–	–	–	–	–	–	–	–	–
